# The RNAGym collection of RNA variant scans (doi:10.1073/pnas.2313332121)
# This sample is rich in variants without activity.
# B1: TPR 5TU (parent)
# chain: GGAUCUUCUCGAUCUAACAAAAAAGACAAAUCUGCCACAAAGCUUGAGAGCAUCUUCGGAUGCAGAGGCGGCAGCCUUCGGUGGCGCGAUAGCGCCAACGUUCUCAACUAUGACACGCAAAACGCGUGCUCCGUUGAAUGGAGUUUAUCAUG
# Variants of: B1
# Test: polymerase ribozyme fitness, log enrichment relative to wild type (log ratio); higher = more active; in vitro selection for triplet polymerase activity
# How it was run: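 PCR was used to build mutant libraries for each subunit of a heterodimeric triplet polymerase ribozyme, which were then transcribed. A single in vitro selection round, in triplicate, used a frozen incubation at −7 °C and recovered extended constructs by gel excision, streptavidin beads and RT-PCR. Fitness is the logarithm of genotype enrichment relative to wild-type enrichment, averaged over replicates with inverse-variance weights. The logarithm is base 2, and after Illumina sequencing only genotypes with ≥10 input reads and ≥1 read per output were kept.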
row,Variant,polymerase ribozyme fitness (log ratio)
1,A39G G58U U82C C108A U146A A150C,≤ -4.2
2,A39G G59C G71A U101C A115G G140U,≤ -4.2
3,A39G G59C U104A,-3.12
4,A39G G62A G94A A120U G143U,≤ -4.2
5,A39G G62C C85A G88C C95A C108A A119C A150G,≤ -4.2
6,A39G G65C C85G,≤ -4.2
7,A39G G80C C93U C118U,-3.96
8,A39G G80U C95U C116G,-3.6
9,A39G G84A C116U,-1.91
10,A39G G86C U109C G128U G140C,≤ -4.2
11,A39G G88C A91U G136U,≤ -4.2
12,A39G G88C A91U G143U,≤ -4.2
13,A39G G117C,-1.91
14,A39G U53A C87U A115C,-3.83
15,A39G U55A G84C C125U,≤ -4.2
16,A39G U55A U148G,≤ -4.2
17,A39G U61G C79A A91U C93U G126A,≤ -4.2
18,A39U A40U A91U C95G,≤ -4.2
19,A39U A41C A98G,-2.72
20,A39U A49C C54U C79U A89C G141U U148A,≤ -4.2
21,A39U A52G A107U G128A C129A,≤ -4.2

row,Variant,polymerase ribozyme fitness (log ratio)
1,A39U A52G C57U G84A C132G,≤ -4.2
2,A39U A60U G81A C85A C93U,≤ -4.2
3,A39U A64C C96U C125U,≤ -4.2
4,A39U A64U C87G,≤ -4.2
5,A39U A66U G88A C99G G143U,≤ -4.2
6,A39U A73C C87A U101G,≤ -4.2
7,A39U A89G C93G C125U U139A,≤ -4.2
8,A39U A91C G141C U148G,≤ -4.2
9,A39U A138G,≤ -4.2
10,A39U C69A G74C C76U C87A,≤ -4.2
11,A39U C69U C75U G84U,≤ -4.2
12,A39U C75G A91G U109G,≤ -4.2
13,A39U C85G U101C U127G,≤ -4.2
14,A39U C87G A91G C108G U151A,≤ -4.2
15,A39U C93G A97G A106G A122G G136C U144G,≤ -4.2
16,A39U C108A A115U U127G U144A,≤ -4.2
17,A39U G42A C87A G94A A97U A147G U151A,≤ -4.2
18,A39U G42C G68C,≤ -4.2
19,A39U G42U A73G C87A U135G,≤ -4.2
20,A39U G48C G68U A122G G140U U145A A147C,≤ -4.2
21,A39U G50C G83U C87A C95G A107G,≤ -4.2

row,Variant,polymerase ribozyme fitness (log ratio)
1,A39U G58C G74U A91G C123G G133A U146C,≤ -4.2
2,A39U G59C G83U,-2.72
3,A39U G68A A73G C87G C132A G141C U144C,≤ -4.2
4,A39U G70U C118G C131G,≤ -4.2
5,A39U G74A C85U A91C C125A,≤ -4.2
6,A39U G83A U151G,≤ -4.2
7,A39U G100A A110G A150U,≤ -4.2
8,A39U G100C U148A,-4.2
9,A39U U44A C57A A91U G100A U102C,≤ -4.2
10,A39U U44G C79U G84C G136U,≤ -4.2
11,A39U U45G C85A A91C G92C,≤ -4.2
12,A39U U53A C75G G86U U146G,≤ -4.2
13,A39U U53A C76G U145A,≤ -4.2
14,A39U U53A G74U,≤ -4.2
15,A39U U53C C108G C149U,≤ -4.2
16,A39U U55A C105U C108G C116U A121C,≤ -4.2
17,A39U U55G G88A U104A U135A U144C C149A,≤ -4.2
18,A39U U55G U82C C85U U146C,-2.49
19,A39U U56A C96A A138U,≤ -4.2
20,A39U U56G C93G U101G,≤ -4.2
21,A39U U78A G83A G84C A115U U134C G136U,≤ -4.2

row,Variant,polymerase ribozyme fitness (log ratio)
1,A40C A41C A52U A91U C95G G117C G128U G141C U146A,≤ -4.2
2,A40C A41U A47C U53C G71C A106U G141A,≤ -4.2
3,A40C A47C C93A A137G U146C,-4.13
4,A40C A47C G50A C51U U53A U82C G84A G126A C131U,≤ -4.2
5,A40C A49C C72U G143U U146G,≤ -4.2
6,A40C A49C U56A A60C G84A G136A,≤ -4.2
7,A40C A49G C87U C105U A106U U109G U139G,≤ -4.2
8,A40C A49U G128A G141U,≤ -4.2
9,A40C A52C G86A A98G,-2.37
10,A40C A52C G88U G92A A97G,≤ -4.2
11,A40C A52G C79A C85U C99A A106G A142U G152U,≤ -4.2
12,A40C A52G G62C A97C U148A,≤ -4.2
13,A40C A52U U55A C93U,-3.92
14,A40C A64C C85A U102A A106U G126A G133C U134C U148C,≤ -4.2
15,A40C A64G C93U C96A C103G A113U C125G,≤ -4.2
16,A40C A73G G81U C95A A106C C125G G141C U146G A150U,≤ -4.2
17,A40C A73G G92A U111C U134A,≤ -4.2
18,A40C A89G A150G,-3.25
19,A40C A89U,0.433
20,A40C A98U A122U,0.766
21,A40C A113G C116U U134G G141U,≤ -4.2
